In all, about 110,000 compounds were measured (“z-score”: median about -0.1, highest 2% from about 2 on). This is one part of the list.
Target: Metabotropic glutamate receptor 8 (Rattus norvegicus) (UniProt P70579)
Assay: rat mGluR8 modulators via GIRK flux, primary screen, cell-based, thallium flux, HTS (AID 488969)
Conditions: HEK293 rat mGluR8, GIRK (G protein-gated inwardly rectifying potassium channel) thallium flux, FluoZin2; at 10 µM; stronger effect = higher value; submaximal glutamate (EC20) added with thallium

UniProt P70579, sequence (P70579 whole entry, looked up): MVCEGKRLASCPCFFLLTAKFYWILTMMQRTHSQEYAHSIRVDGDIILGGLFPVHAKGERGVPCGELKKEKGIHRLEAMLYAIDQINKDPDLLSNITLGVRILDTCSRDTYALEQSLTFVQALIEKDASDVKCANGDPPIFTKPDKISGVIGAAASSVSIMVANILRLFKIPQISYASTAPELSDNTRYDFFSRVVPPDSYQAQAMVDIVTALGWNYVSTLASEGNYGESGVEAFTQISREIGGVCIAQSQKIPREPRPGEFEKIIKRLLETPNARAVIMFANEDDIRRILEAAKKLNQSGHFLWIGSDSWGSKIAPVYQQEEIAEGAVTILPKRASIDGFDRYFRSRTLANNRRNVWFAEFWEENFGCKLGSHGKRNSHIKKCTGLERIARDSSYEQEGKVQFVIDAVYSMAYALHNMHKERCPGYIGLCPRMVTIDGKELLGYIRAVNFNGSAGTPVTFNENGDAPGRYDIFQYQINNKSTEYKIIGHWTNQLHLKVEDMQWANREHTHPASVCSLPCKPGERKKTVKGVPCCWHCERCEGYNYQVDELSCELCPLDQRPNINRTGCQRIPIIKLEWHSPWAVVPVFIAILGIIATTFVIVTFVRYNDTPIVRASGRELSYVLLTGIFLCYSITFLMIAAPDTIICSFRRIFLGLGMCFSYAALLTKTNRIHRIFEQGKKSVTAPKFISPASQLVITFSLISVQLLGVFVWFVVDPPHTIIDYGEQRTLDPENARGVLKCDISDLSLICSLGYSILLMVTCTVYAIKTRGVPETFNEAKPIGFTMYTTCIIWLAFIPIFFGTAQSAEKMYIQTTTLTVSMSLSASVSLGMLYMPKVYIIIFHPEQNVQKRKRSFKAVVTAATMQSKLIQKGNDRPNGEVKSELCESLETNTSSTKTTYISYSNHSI

Row | Compound | z-score
1 | COC(=O)c1cc2sc(Cl)cc2n1Cc1nc(-c2cccc(C)c2)oc1C | -0.256
2 | COc1ccc(Nc2nc(NCCO)nc(OC)n2)cc1 | 0.28
3 | CCOC(=O)Cn1nc(C)c(-c2ccccc2)c1N | 0.0625
4 | COc1ccc(-n2c(SCC(=O)NNC(=O)c3ccccc3C)nnc2-c2ccncc2)cc1 | -0.25
5 | Cc1ccc(NC(=S)N(CCN(C)C)C(C)c2ccco2)cc1C (stereo not drawn) | -0.172
6 | CN1CCN(C(=O)C2(NC(=O)Nc3cccc(F)c3)CCCCC2)CC1 | -0.329
7 | CCc1nc2ccc(C)cc2c(C(=O)Oc2cccc3cccnc23)c1C | -0.12
8 | c1ccc(Nc2nc(-c3cccnc3)cs2)nc1 | -0.108
9 | CC(C)CC(NS(=O)(=O)c1ccc2c(c1)oc(=O)n2C)C(=O)NCc1cccnc1 (stereo not drawn) | -1.69
10 | Cc1nnc(NC(=O)CSc2cn(Cc3ccccc3)c3ccccc23)s1 | 0.0158
11 | CC1(C)CC(C(=O)NCCC(c2ccccc2)c2ccco2)CCO1 (stereo not drawn) | -0.131
12 | CN1CCN(C(=O)c2ccc3c(=O)n(CCc4ccccc4)c(=S)[nH]c3c2)CC1 | 0.284
13 | O=C(NC1CCCC1)C(NS(=O)(=O)c1cccc2nsnc12)c1ccccc1 (stereo not drawn) | 0.294
14 | COc1ccc(C2Nc3ccccc3C(=O)N2Cc2ccco2)cc1COc1ccc(F)cc1 (stereo not drawn) | -0.406
15 | CC(=O)C1=C(c2ccccc2)NC(=O)NC1c1ccccc1OCC(=O)NCc1ccccc1 (stereo not drawn) | -0.25
16 | N=c1c2c(n(Cc3ccccc3)c3c1CCC3)CCC2 | 0.223
17 | CCOC(=O)N1CCC(NC(=O)c2sc3nc4n(c(=O)c3c2C)CCCC4)CC1 | -0.186
18 | O=C(COC(=O)Cc1cn2ccsc2n1)NCc1ccc2c(c1)OCO2 | 0.0905
19 | CC(CCc1ccccc1)NC(=O)c1ccc(NC(=O)c2ccccc2)cc1 (stereo not drawn) | -0.424
20 | COC(=O)C1=NNC2(c3ccc(Cl)cc3)C(=O)N(c3ccc(Cl)cc3)C(=O)C12 (stereo not drawn) | 0.081
21 | O=C(/C=C/c1cccc(OCc2ccccc2)c1)c1cccnc1 | -0.519
22 | COC(=O)C1=C(C)N(Cc2ccc(OC)cc2)C(=O)C1 | -0.151
23 | O=C(Nc1ccccc1)NC1CC2CCC(C1)N2Cc1nnnn1Cc1ccc2c(c1)OCO2 (stereo not drawn) | 0.0722

Row | Compound | z-score
24 | Cc1ccccc1-c1nc(CN2CCC(C(=O)NC3CCN(Cc4ccccc4)CC3)CC2)c(C)o1 | 0.236
25 | O=C1OC2CCC1(c1ccccc1)C2 (stereo not drawn) | 0.00964
26 | O=C(CN(Cc1ccc(F)cc1)S(=O)(=O)c1ccc(S(=O)(=O)N2CCOCC2)cc1)Nc1ccccc1 | -0.0119
27 | Cc1ccc(Cc2nc(-c3cccc(C)c3)no2)cc1 | -0.14
28 | C=CCn1c(SCC(=O)NC2CCCCC2)nnc1C(C)NC(=O)c1cccs1 (stereo not drawn) | -0.128
29 | COc1ccc(C2NC(=O)c3sc(=S)n(-c4ccccc4)c3N2)cc1 (stereo not drawn) | -0.318
30 | COc1cc(Nc2ccc(C)cc2)c([N+](=O)[O-])nc1[N+](=O)[O-] | -1.45
31 | CCOC(=O)Nc1cccc(OCC(=O)Nc2ccccc2OCC)c1 | -0.0863
32 | CCOc1cc(NS(=O)(=O)CC)c(OCC)cc1NC(=O)c1ccco1 | -0.521
33 | Cc1ccc(S(=O)(=O)N2CCN(C(=O)CCC(=O)NCc3ccc(F)cc3)CC2)cc1 | -0.183
34 | COc1ccc(C2Nc3ccccc3C(=O)N2c2ccc(C)cc2)cc1COc1ccccn1 (stereo not drawn) | -0.382
35 | CN1c2ccccc2C2(C)CCCC3=Cc4cc([N+](=O)[O-])cc([N+](=O)[O-])c4OC312 (stereo not drawn) | -0.376
36 | O=C(NC(=S)Nc1ccccn1)c1ccc([N+](=O)[O-])cc1 | 0.166
37 | COC(=O)Cc1c(C)c2ccc(OCC(=O)NCc3ccc4c(c3)OCO4)cc2oc1=O | 0.0387
38 | Cc1ccccc1C(=O)Oc1cccc(Nc2ncnc3ccccc23)c1 | -1.4
39 | COC(=O)C1=C(C(=O)OC)C2(OC1c1ccccc1C)C(=O)c1ccccc1C2=O (stereo not drawn) | -0.448
40 | CCOc1ccc(C2C=C(c3ccc(C)cc3)Nc3ncnn32)cc1 (stereo not drawn) | -0.263
41 | O=C(c1ccccc1)c1ccc(N2CCCC2)cc1 | 0.163
42 | CCOC(=O)c1c(C)[nH]c(C=C2C(=O)CCCC2=O)c1O | -0.22
43 | O=C(COC(=O)/C=C/c1ccccc1)Nc1ccccc1Br | 0.366
44 | COC(=O)/C(=C/c1ccco1)NC(=O)c1ccco1 | 0.0704
45 | CS(=O)(=O)N(CC(=O)Nc1ccccc1)Cc1ccc(Cl)cc1 | 0.264
46 | CCOC(=O)c1c(NC(=O)C2CCCN(S(=O)(=O)c3ccc(C)cc3)C2)sc2c1CCCC2 (stereo not drawn) | -1.01

Row | Compound | z-score
47 | O=C(c1ccc(Br)o1)N1CCN(C/C=C/c2ccccc2)CC1 | 0.0888
48 | CCOc1ccc(S(=O)(=O)Nc2cc(S(=O)(=O)N(CC)CC)ccc2N2CCCC2)cc1 | -0.0168
49 | COc1ccc(NC(=O)N(C2CCCCC2)C2CCN(C(C)C)CC2)c(OC)c1 | -0.188
50 | COc1ccc(OC)c(NC(=O)N[C@@H](Cc2ccccc2)C(=O)O)c1 | -0.217
51 | Cc1nn(C)cc1/C=C/C(=O)c1cccs1 | 0.139
52 | O=[N+]([O-])c1ccc(-c2nnc(-c3ccccc3)c(NCCCO)n2)cc1 | -0.236
53 | O=C(CN1CCOc2ccccc21)NC1CCCCCCC1 | -0.331
54 | Cc1ccc(S(=O)(=O)N2CCCC(C(=O)N3CCCc4ccccc43)C2)cc1 (stereo not drawn) | -0.204
55 | O=C(c1ccc(O)cc1)c1ccc(C(=O)c2ccc(O)cc2)cc1 | 0.0126
56 | CCn1c(SCC(=O)N/N=C/c2ccc(C)o2)nnc1-c1ccc(C)cc1 | -0.634
57 | c1ccc(CNCCN2CCNCC2)nc1 | 0.129
58 | COc1ccc2c(c1)[nH]c1c(=O)n(CCN(C)C)cnc12 | 0.385
59 | O=C(Nc1nnc(SCc2ccccc2)s1)c1cccs1 | -0.61
60 | COc1ccc(S(=O)(=O)N2CCC(C(=O)N3CCOCC3)CC2)cc1 | 0.152
61 | O=C(NCCOCC(F)(F)C(F)F)c1cc(F)c(F)cc1Cl | 0.363
62 | COc1ccccc1Cn1c(-c2ccco2)nc2nc3ccccc3nc21 | 0.295
63 | CCN1CCc2c(sc(N)c2C#N)C1 | 0.055
64 | Cc1ccc(NS(=O)(=O)c2cc([N+](=O)[O-])ccc2NNC(=S)Nc2cc(C)ccc2C)c(C)c1 | -1.28
65 | O=C1CC(c2ccco2)Cc2nc(Nc3nc(-c4ccccc4)c4ccccc4n3)ncc21 (stereo not drawn) | -0.969
66 | CCOc1ccc(S(=O)(=O)N(CC)CC)cc1NS(=O)(=O)c1ccc(F)c(F)c1F | -0.454
67 | CC(C)c1cc(C(=O)N/N=C/C=C/c2ccccc2)n[nH]1 | -0.67
68 | Cc1cccc2cc(CN(Cc3nnnn3C3CCCCC3)C3CCCC3)c3nnnn3c12 | -0.708

Source: PubChem BioAssay AID488969 (Vanderbilt High Throughput Screening Facility, 2010)
